# Reference: article PMC6919601, “Identification of Plasmodium dipeptidyl aminopeptidase allosteric inhibitors by high throughput screening” (PLoS ONE, 2019)
# The campaign covered roughly 110,000 compounds. About 230 (0.21%) showed an effect of 50% or more. The list shows a part of the results.
# Target: DPAP1 (Plasmodium falciparum, UniProt Q8IIJ9)
# Assay: primary screen, percent inhibition; read by cleavage of a fluorogenic dipeptide substrate; higher = more effect of the substance
# Set-up: species or system P. falciparum D10 trophozoite lysates; single well
# 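Further: 30 min substrate incubation versus DMSO and 10 µM JCP410 controls.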
# Sequence of DPAP1 (Q8IIJ9 whole entry, looked up): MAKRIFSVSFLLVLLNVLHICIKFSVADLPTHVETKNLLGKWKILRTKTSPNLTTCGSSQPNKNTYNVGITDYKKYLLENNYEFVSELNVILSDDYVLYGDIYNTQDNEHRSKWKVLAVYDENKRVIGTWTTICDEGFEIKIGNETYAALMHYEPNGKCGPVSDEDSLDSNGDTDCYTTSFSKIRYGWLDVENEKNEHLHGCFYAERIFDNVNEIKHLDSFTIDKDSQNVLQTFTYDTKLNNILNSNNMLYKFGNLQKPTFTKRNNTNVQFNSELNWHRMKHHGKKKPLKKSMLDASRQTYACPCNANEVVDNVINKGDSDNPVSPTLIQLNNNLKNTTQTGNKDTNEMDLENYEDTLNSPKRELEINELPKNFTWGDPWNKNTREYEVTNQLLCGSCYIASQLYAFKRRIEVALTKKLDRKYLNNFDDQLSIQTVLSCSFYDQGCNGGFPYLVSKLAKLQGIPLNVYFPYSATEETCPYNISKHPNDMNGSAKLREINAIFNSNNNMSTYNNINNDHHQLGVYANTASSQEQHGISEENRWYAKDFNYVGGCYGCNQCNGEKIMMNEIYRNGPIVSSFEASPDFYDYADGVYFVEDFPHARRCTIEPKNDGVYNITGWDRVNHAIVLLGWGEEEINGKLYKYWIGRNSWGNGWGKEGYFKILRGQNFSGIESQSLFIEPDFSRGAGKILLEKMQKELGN
row,SMILES,% Inhibition @ 10 uM
1,CC1CCCC(C)N1C(=O)c1ccc(F)c(F)c1 (stereo not drawn),5.41%
2,CC(=O)NC(C)c1nc2ccccc2n1Cc1c(F)cccc1Cl (stereo not drawn),-2.01%
3,NC(=O)c1sc2nc3c(cc2c1N)CCCC3,4.66%
4,O=C(/C=C/c1ccccc1)N1CCCc2ccccc21,-5.68%
5,Cc1cc(C)c(S(=O)(=O)N2CCN(c3ccccc3)CC2)c(C)c1,-7.17%
6,Cc1cc(C)c(S(=O)(=O)Nc2ccc(C)c(C)c2)c(C)c1,-4.63%
7,Cc1ccc(CNC(=O)C2CCC(=O)N2CCc2ccccc2)cc1 (stereo not drawn),1.62%
8,Oc1cc(CSc2ccc(Cl)cc2)nc(N2CCN(Cc3ccc4c(c3)OCO4)CC2)n1,1.51%
9,O=C(Nc1ccc2c(c1)oc1ccccc12)C1CCCCC1,2.55%
10,COCCNC(=O)C12CCC3CC(CC(C3)C1)C2,3.44%
11,Cc1nc2ccccc2n1-c1nn2c(C(F)(F)C(F)(F)F)nnc2c2ccccc12,-0.834%
12,Cc1ccc(CCNC(=O)NC(C)(C)C)cc1,-8.92%
13,COc1ccc(C2C(C#N)=C(N)OC3=C2C(=O)CCC3)cc1OCc1ccc(Cl)cc1 (stereo not drawn),5.67%
14,Cc1cc(C)c(-n2cccc2CN)c(C)c1,-2.77%
15,CC(C)c1ccc(NC(=O)C23CC4CC(CC(C4)C2)C3)cc1,-0.192%
16,COC(=O)c1nc2n(n1)C(c1ccc(C)cc1)/C(=C(\O)OC1CCCCC1)C(C)=N2 (stereo not drawn),4.77%
17,CCOc1ccc(C2C(C#N)=C(N)Oc3[nH]nc(-c4cccs4)c32)cc1OCC (stereo not drawn),-6.59%
18,COc1ccc(CN2CCN(Cc3ccccc3)CC2)c(OC)c1OC,-5.23%
19,CC1(C)CC2=Nc3ccccc3NC(c3cc4c(cc3Br)OCO4)C2=C(O)C1 (stereo not drawn),-3.27%
20,COC(=O)C1=C(C)N=C(C)/C(=C(/O)OC)C1c1ccc(OC)c(Br)c1 (stereo not drawn),-0.769%
21,Cc1ccc(S(=O)(=O)N2CCN(c3nc(NC(C)c4ccccc4)c4ccccc4n3)CC2)cc1 (stereo not drawn),0.778%
22,O=C(NCc1ccc(F)cc1Cl)c1cc(O)nc2ccc(S(=O)(=O)N3CCCC3)cc12,0.387%
23,O=C(Nc1ccc2ccccc2c1)C1CC(=O)N(C2CCCCC2)C1 (stereo not drawn),-3.9%
24,C=CCOC(=O)C1=C(C)N(C)C(=O)NC1c1cc(OC)ccc1OC (stereo not drawn),-5.92%
25,N#CC1=C(N)Oc2[nH]nc(-c3ccc(F)cc3)c2C1c1ccco1 (stereo not drawn),-2.45%
26,Cc1ccc(CNC(=O)c2cc3c(Cl)ccc4c3n2CCO4)o1,2.48%
27,CCOc1ccc2nc(N3CCC(C(=O)Nc4cc(-c5ccccc5Cl)no4)CC3)sc2c1,-7.1%
